In paper PMC4075450 one finds binding data, which are given here for one molecule.

What all share (assay): two-hybrid; yeast; clones grown on synthetic dropout medium without histidine (−HIS) plus 1 mM 3AT (1 or 5 mM 3AT for the ARF6 fragments); activation domain and DNA binding domain fusions
Experiment [1] addresses T1, ARF1 (auxin response factor 1), yeast two-hybrid fusion (Arabidopsis thaliana) (UniProt Q8L7G0).
T1 sequence: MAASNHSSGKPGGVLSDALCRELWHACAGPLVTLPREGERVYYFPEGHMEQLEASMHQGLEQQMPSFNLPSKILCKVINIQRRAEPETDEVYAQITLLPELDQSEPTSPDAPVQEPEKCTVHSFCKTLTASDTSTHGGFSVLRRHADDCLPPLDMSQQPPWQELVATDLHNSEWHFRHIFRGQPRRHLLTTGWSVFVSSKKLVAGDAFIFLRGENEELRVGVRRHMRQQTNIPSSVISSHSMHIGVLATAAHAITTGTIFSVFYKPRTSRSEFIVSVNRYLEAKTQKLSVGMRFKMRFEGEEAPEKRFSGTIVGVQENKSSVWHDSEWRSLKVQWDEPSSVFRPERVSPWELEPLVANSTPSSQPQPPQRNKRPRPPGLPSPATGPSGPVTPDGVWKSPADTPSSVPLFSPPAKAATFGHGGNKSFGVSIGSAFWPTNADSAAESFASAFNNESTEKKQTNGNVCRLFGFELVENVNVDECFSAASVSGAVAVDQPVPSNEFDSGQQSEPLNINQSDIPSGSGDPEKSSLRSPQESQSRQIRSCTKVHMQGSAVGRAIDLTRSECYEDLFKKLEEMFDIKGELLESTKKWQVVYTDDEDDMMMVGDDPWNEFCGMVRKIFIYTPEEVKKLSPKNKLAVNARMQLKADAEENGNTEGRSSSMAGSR

Experiment [2] deals with T2, ARF6 (auxin response factor 6), yeast two-hybrid fusion (Arabidopsis thaliana) (UniProt Q9ZTX8).
T2 sequence: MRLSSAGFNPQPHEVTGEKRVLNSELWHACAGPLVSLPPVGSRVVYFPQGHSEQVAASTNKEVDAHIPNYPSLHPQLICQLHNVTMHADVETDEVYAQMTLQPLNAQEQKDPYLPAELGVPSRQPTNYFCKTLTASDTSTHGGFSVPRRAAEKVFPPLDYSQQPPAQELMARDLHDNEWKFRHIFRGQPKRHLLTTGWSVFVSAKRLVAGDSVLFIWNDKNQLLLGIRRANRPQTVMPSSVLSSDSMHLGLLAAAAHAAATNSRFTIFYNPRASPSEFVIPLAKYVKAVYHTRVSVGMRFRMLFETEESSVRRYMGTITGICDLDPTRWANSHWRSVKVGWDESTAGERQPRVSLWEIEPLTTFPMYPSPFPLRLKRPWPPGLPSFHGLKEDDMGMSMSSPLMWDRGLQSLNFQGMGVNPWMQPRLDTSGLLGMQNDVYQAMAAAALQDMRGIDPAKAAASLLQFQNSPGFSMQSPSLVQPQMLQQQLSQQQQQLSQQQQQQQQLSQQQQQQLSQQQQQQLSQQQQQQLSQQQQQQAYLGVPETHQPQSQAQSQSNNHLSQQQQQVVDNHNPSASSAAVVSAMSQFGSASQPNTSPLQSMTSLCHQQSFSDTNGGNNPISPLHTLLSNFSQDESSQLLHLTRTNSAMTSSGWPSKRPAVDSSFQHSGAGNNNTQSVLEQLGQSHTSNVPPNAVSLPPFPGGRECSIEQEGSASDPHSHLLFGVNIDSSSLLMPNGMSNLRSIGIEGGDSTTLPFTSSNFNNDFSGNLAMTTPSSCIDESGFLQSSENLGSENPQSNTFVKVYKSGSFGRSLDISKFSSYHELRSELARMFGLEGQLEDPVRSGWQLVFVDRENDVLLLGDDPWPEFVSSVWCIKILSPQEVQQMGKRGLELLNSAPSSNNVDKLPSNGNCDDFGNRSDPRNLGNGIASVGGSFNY

For experiment [3], the target named is T3, ARF7 (auxin response factor 7), yeast two-hybrid fusion (Arabidopsis thaliana) (UniProt P93022).
T3 sequence: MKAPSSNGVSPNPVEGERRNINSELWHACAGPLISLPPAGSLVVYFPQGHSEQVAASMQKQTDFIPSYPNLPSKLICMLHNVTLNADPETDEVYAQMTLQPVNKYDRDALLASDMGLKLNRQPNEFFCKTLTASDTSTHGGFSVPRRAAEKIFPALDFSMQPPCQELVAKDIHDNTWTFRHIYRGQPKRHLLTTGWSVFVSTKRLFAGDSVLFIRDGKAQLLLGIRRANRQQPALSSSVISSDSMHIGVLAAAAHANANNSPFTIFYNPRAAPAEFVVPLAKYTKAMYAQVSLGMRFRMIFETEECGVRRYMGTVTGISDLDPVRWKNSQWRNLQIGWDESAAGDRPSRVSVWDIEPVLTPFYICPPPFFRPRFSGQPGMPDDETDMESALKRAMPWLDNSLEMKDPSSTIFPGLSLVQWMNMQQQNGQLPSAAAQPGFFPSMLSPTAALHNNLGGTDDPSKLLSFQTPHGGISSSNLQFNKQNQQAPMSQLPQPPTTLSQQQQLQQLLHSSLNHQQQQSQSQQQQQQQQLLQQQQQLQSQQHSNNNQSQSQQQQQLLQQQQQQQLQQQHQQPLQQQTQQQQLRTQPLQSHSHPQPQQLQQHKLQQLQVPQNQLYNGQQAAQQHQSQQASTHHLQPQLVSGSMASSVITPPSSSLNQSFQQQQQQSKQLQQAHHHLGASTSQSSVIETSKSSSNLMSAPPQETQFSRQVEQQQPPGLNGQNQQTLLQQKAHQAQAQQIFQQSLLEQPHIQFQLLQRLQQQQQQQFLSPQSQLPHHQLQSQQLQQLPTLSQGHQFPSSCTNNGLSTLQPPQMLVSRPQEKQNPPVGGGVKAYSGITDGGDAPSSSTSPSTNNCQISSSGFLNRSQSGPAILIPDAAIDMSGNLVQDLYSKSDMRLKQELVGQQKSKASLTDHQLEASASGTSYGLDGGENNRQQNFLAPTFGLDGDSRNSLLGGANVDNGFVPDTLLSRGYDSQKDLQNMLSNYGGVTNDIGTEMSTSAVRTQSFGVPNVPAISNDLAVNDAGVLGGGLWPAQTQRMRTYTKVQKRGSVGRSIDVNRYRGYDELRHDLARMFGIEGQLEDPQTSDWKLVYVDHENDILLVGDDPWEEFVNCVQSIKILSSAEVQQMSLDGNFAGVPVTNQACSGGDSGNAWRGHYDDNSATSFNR

Experiment [4] has as its target T4, ARF8 (auxin response factor 8), yeast two-hybrid fusion (Arabidopsis thaliana) (UniProt Q9FGV1).
T4 sequence: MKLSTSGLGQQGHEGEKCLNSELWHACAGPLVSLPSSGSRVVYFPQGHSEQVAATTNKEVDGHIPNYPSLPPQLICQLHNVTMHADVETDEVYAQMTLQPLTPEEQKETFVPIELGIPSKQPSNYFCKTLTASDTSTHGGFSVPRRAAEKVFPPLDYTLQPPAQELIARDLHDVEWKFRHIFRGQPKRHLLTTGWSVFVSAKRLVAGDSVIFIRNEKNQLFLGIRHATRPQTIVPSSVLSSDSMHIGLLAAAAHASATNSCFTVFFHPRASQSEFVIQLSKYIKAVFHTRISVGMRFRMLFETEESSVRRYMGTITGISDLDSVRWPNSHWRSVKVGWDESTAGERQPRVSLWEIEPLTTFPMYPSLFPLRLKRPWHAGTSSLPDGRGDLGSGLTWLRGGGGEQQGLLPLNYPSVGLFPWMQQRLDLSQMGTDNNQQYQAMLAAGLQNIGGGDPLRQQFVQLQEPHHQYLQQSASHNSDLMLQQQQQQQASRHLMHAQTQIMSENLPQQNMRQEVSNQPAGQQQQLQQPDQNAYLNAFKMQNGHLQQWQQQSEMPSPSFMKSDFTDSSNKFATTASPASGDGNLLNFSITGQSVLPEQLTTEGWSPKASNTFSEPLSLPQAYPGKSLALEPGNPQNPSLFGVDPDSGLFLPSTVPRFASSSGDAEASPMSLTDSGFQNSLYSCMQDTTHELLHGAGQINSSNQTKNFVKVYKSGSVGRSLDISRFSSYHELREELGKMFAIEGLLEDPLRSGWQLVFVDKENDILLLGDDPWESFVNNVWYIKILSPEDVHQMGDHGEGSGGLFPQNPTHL

No constants are given. Whether binding was seen depends on the method and setting. Some binding calls cover weakened binding; strength is not graded here. Tags and fused reporters may be left off the sequences shown.

B1: RGA-C (RGA with deletion of N-terminal 208 amino acids), yeast two-hybrid fusion (domain or fragment, UniProt Q9SLH3 209-587)
chain: VILVDSQENGVRLVHALMACAEAIQQNNLTLAEALVKQIGCLAVSQAGAMRKVATYFAEALARRIYRLSPPQNQIDHCLSDTLQMHFYETCPYLKFAHFTANQAILEAFEGKKRVHVIDFSMNQGLQWPALMQALALREGGPPTFRLTGIGPPAPDNSDHLHEVGCKLAQLAEAIHVEFEYRGFVANSLADLDASMLELRPSDTEAVAVNSVFELHKLLGRPGGIEKVLGVVKQIKPVIFTVVEQESNHNGPVFLDRFTESLHYYSTLFDSLEGVPNSQDKVMSEVYLGKQICNLVACEGPDRVERHETLSQWGNRFGSSGLAPAHLGSNAFKQASMLLSVFNSGQGYRVEESNGCLMLGWHTRPLITTSAWKLSTAAY
Regarding B1, the binding entry in experiment [1] is on record as “no binding”; in experiment [2], “binds”; in experiment [3], “binds”; in experiment [4] it was “binds”.
